This continues a long series; more values of the same kind are listed elsewhere.
How the values were obtained:
Assay in all cases: concentration in plasma after dosing
[1] = tested on: Rat; details: dosed: Potassium Perfluorobutane Sulfonate, 100 mg/kg, oral, Female, Harlan Sprague Dawley
[2] = tested on: Rat; details: dosed: Potassium Perfluorobutane Sulfonate, 20 mg/kg, oral, Female, Harlan Sprague Dawley
[3] = tested on: Rat; details: 1.5 h; dosed: Potassium Perfluorobutane Sulfonate; 4 mg/kg; oral; Female; Harlan Sprague Dawley
[4] = tested on: Rat; details: 0.75 h; dosed: Potassium Perfluorobutane Sulfonate; 20 mg/kg; oral; Male; Harlan Sprague Dawley
[5] = tested on: Rat; details: 0.75 h; dosed: Potassium Perfluorobutane Sulfonate; 20 mg/kg; oral; Female; Harlan Sprague Dawley
[6] = tested on: Rat; details: dosed: Potassium Perfluorobutane Sulfonate, 20 mg/kg, oral, Female, Harlan Sprague Dawley; remark: listed apart in the source
[7] = tested on: Rat; details: 0.5 h; dosed: Potassium Perfluorobutane Sulfonate; 20 mg/kg; oral; Female; Harlan Sprague Dawley
[8] = tested on: Rat; details: dosed: Potassium Perfluorobutane Sulfonate, 100 mg/kg, oral, Female, Harlan Sprague Dawley; remark: listed apart in the source
[9] = tested on: Rat; details: 1 h; dosed: Potassium Perfluorobutane Sulfonate; 100 mg/kg; oral; Female; Harlan Sprague Dawley
[10] = tested on: Rat; details: dosed: Potassium Perfluorobutane Sulfonate, 4 mg/kg, oral, Female, Harlan Sprague Dawley
[11] = tested on: Rat; details: 6 h; dosed: Potassium Perfluorobutane Sulfonate; 20 mg/kg; oral; Female; Harlan Sprague Dawley
[12] = tested on: Rat; details: dosed: Potassium Perfluorobutane Sulfonate, 100 mg/kg, oral, Male, Harlan Sprague Dawley
[13] = tested on: Rat; details: dosed: Potassium Perfluorobutane Sulfonate, 100 mg/kg, oral, Female, Harlan Sprague Dawley; remark: listed apart in the source
[14] = tested on: Rat; details: dosed: Potassium Perfluorobutane Sulfonate, 100 mg/kg, oral, Female, Harlan Sprague Dawley; remark: listed apart in the source
[15] = tested on: Rat; details: 6 h; dosed: Potassium Perfluorobutane Sulfonate; 20 mg/kg; oral; Female; Harlan Sprague Dawley; remark: listed apart in the source
[16] = tested on: Rat; details: dosed: Potassium Perfluorobutane Sulfonate, 4 mg/kg, oral, Female, Harlan Sprague Dawley; remark: listed apart in the source
[17] = tested on: Rat; details: dosed: Potassium Perfluorobutane Sulfonate, 4 mg/kg, oral, Female, Harlan Sprague Dawley; remark: listed apart in the source
[18] = tested on: Rat; details: 1 h; dosed: Potassium Perfluorobutane Sulfonate; 20 mg/kg; oral; Female; Harlan Sprague Dawley
[19] = tested on: Rat; details: dosed: Potassium Perfluorobutane Sulfonate, 100 mg/kg, oral, Female, Harlan Sprague Dawley; remark: listed apart in the source
[20] = tested on: Rat; details: 1.5 h; dosed: Potassium Perfluorobutane Sulfonate; 4 mg/kg; oral; Female; Harlan Sprague Dawley; remark: listed apart in the source
[21] = tested on: Rat; details: dosed: Dibromoacetic acid, 50 mg/kg, oral, Male, Harlan Sprague Dawley
[22] = tested on: Rat; details: dosed: Dibromoacetic acid, 25 mg/kg, iv, Female, F344
[23] = tested on: Rat; details: dosed: Dibromoacetic acid, 125 mg/kg, oral, Female, Harlan Sprague Dawley
[24] = tested on: Rat; details: 5 min; dosed: Dibromoacetic acid; 125 mg/kg; oral; Male; F344
[25] = tested on: Rat; details: 0.5 h; dosed: Dibromoacetic acid; 25 mg/kg; iv; Male; F344
[26] = tested on: Rat; details: 5 min; dosed: Dibromoacetic acid; 125 mg/kg; oral; Male; F344; remark: listed apart in the source
[27] = tested on: Rat; details: dosed: Dibromoacetic acid, 25 mg/kg, iv, Male, F344
[28] = tested on: Rat; details: 5 min; dosed: Dibromoacetic acid; 125 mg/kg; oral; Male; F344; remark: listed apart in the source
[29] = tested on: Rat; details: 5 min; dosed: Dibromoacetic acid; 50 mg/kg; oral; Male; F344
[30] = tested on: Rat; details: dosed: Dibromoacetic acid, 25 mg/kg, iv, Male, F344; remark: listed apart in the source
[31] = tested on: Rat; details: dosed: Dibromoacetic acid, 125 mg/kg, oral, Male, F344
[32] = tested on: Rat; details: 0.5 h; dosed: Dibromoacetic acid; 50 mg/kg; oral; Male; Harlan Sprague Dawley
[33] = tested on: Rat; details: dosed: Dibromoacetic acid, 50 mg/kg, oral, Male, Harlan Sprague Dawley; remark: listed apart in the source
[34] = tested on: Rat; details: dosed: Dibromoacetic acid, 25 mg/kg, iv, Female, F344; remark: listed apart in the source
[35] = tested on: Rat; details: dosed: Dibromoacetic acid, 125 mg/kg, oral, Male, F344; remark: listed apart in the source
[36] = tested on: Rat; details: 5 min; dosed: Dibromoacetic acid; 50 mg/kg; oral; Male; F344; remark: listed apart in the source
[37] = tested on: Rat; details: dosed: Dibromoacetic acid, 50 mg/kg, oral, Female, Harlan Sprague Dawley
[38] = tested on: Rat; details: 10 min; dosed: Dibromoacetic acid; 125 mg/kg; oral; Female; F344

O=S(=O)([O-])C(F)(F)C(F)(F)C(F)(F)C(F)(F)F.[K+] [Potassium Perfluorobutane Sulfonate]
Details | concentration in plasma
[1], 0.5 h | 171 µg/mL
[1], 9 h | 0.887 µg/mL
[2], 5 min | 2800 ng/mL
[2], 9 h | 1570 ng/mL
[6], 5 min | 4450 ng/mL
[6], 9 h | 356 ng/mL
[8], 0.75 h | 155 µg/mL
[8], 12 h | 0.549 µg/mL
[10], 0.25 h | 3590 ng/mL
[10], 6 h | 1210 ng/mL
[12], 0.75 h | 247 µg/mL
[12], 12 h | 31.4 µg/mL
[13], 0.25 h | 106 µg/mL
[13], 6 h | 52.3 µg/mL
[14], 3 h | 95.3 µg/mL
[14], 5 min | 27.7 µg/mL
[16], 0.25 h | 6250 ng/mL
[16], 6 h | 350 ng/mL
[17], 0.5 h | 8090 ng/mL
[17], 9 h | 38.3 ng/mL
[19], 0.25 h | 97.9 µg/mL
[19], 6 h | 54.7 µg/mL

Details | concentration in plasma
[3] | 6570 ng/mL
[4] | 67 µg/mL
[5] | 43700 ng/mL
[7] | 39500 ng/mL
[9] | 134 µg/mL
[11] | 2870 ng/mL
[15] | 587 ng/mL
[18] | 27600 ng/mL
[20] | 7940 ng/mL

O=C(O)C(Br)Br [Dibromoacetic acid]
Details | concentration in plasma [µg/mL]
[21], 1 h | 22.5
[21], 2 h | 4.04
[22], 1 h | 2.52
[22], 20 min | 21
[23], 3 h | 12.4
[23], 20 min | 70.5
[27], 7 min | 49.2
[27], 50 min | 5.17
[30], 0.75 h | 6.34
[30], 5 min | 48.6
[31], 3 h | 22.3
[31], 20 min | 57.8
[33], 1 h | 21.5
[33], 2 h | 3.39
[34], 2 min | 67.6
[34], 40 min | 5.21
[35], 0.5 h | 67.2
[35], 6 h | 2.77
[37], 1.5 h | 18.8
[37], 20 min | 16.9

Details | concentration in plasma [µg/mL]
[24] | 45.7
[25] | 12.2
[26] | 56.2
[28] | 45.8
[29] | 8.28
[32] | 42.2
[36] | 8.43
[38] | 67

— EPA's CvTdb concentration-time database
